# According to the supplement of paper PMC8728848:
# The other results are listed elsewhere or left out.
# Assays:
# Experiment in all cases: glycan array binding signal (z-score within array); higher = stronger binding
# Conditions in all cases: glycan notation: IUPAC condensed, linker removed
# [1] = biological target: Gal(b1-3)GlcNAc(b1-3)Gal(b1-4)[Fuc(a1-3)]GlcNAc(b1-6)[Gal(b1-3)GlcNAc(b1-3)]Gal(b1-4)Glc
# Outline: (§1)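 From the Consortium for Functional Glycomics database, 3228 arrays were curated, keeping only those whose protein sequence was available. Binding is given as a within-array Z-score averaged across arrays sharing a protein sequence and across linkers. Negative Z-scores can be read as non-binding.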
# [2] = biological target: Gal(b1-3)GlcNAc(b1-3)GalNAc
# Outline: as §1
# [3] = biological target: Gal(b1-3)GlcNAc(b1-6)Gal(b1-4)GlcNAc
# Outline: as §1
# [4] = biological target: Gal(b1-3)GlcNAc(b1-6)GalNAc
# Outline: as §1
# [5] = biological target: Gal(b1-3)GlcNAc(b1-6)[Gal(b1-3)]GalNAc
# Outline: as §1
# [6] = biological target: Gal(b1-3)GlcNAc6S
# Outline: as §1
# [7] = biological target: Gal(b1-3)[Fuc(a1-4)]GlcNAc
# Outline: as §1
# [8] = biological target: Gal(b1-3)[Fuc(a1-4)]GlcNAc(b1-2)Man
# Outline: as §1
# [9] = biological target: Gal(b1-3)[Fuc(a1-4)]GlcNAc(b1-2)Man(a1-3)[Gal(b1-3)[Fuc(a1-4)]GlcNAc(b1-2)Man(a1-6)]Man(b1-4)GlcNAc(b1-4)GlcNAc
# Outline: as §1
# [10] = biological target: Gal(b1-3)[Fuc(a1-4)]GlcNAc(b1-2)Man(a1-3)[Gal(b1-3)[Fuc(a1-4)]GlcNAc(b1-2)Man(a1-6)]Man(b1-4)GlcNAc(b1-4)[Fuc(a1-6)]GlcNAc
# Outline: as §1
# [11] = biological target: Gal(b1-3)[Fuc(a1-4)]GlcNAc(b1-3)Gal(b1-3)[Fuc(a1-4)]GlcNAc
# Outline: as §1
# [12] = biological target: Gal(b1-3)[Fuc(a1-4)]GlcNAc(b1-3)Gal(b1-4)GlcNAc
# Outline: as §1
# [13] = biological target: Gal(b1-3)[Fuc(a1-4)]GlcNAc(b1-3)Gal(b1-4)[Fuc(a1-3)]GlcNAc
# Outline: as §1
# [14] = biological target: Gal(b1-3)[Fuc(a1-4)]GlcNAc(b1-6)GalNAc
# Outline: as §1
# [15] = biological target: Gal(b1-3)[GlcNAc(b1-6)]GalNAc
# Outline: as §1
# [16] = biological target: Gal(b1-3)[Neu5Ac(a2-6)]GalNAc
# Outline: as §1
# [17] = biological target: Gal(b1-3)[Neu5Ac(a2-6)]GlcNAc(b1-4)Gal(b1-4)Glc
# Outline: as §1
# [18] = biological target: Gal(b1-3)[Neu5Ac(a2-6)]GlcNAc(b1-6)Gal(b1-4)Glc
# Outline: as §1
# [19] = biological target: Gal(b1-3)[Neu5Ac(b2-6)]GalNAc
# Outline: as §1
# [20] = biological target: Gal(b1-4)Gal
# Outline: as §1
# [21] = biological target: Gal(b1-4)GalNAc(a1-3)[Fuc(a1-2)]Gal(b1-4)GlcNAc
# Outline: as §1
# [22] = biological target: Gal(b1-4)GalNAc(b1-3)[Fuc(a1-2)]Gal(b1-4)GlcNAc
# Outline: as §1
# [23] = biological target: Gal(b1-4)Glc
# Outline: as §1
# [24] = biological target: Gal(b1-4)Glc6S
# Outline: as §1
# [25] = biological target: Gal(b1-4)GlcNAc
# Outline: as §1
# [26] = biological target: Gal(b1-4)GlcNAc(a1-6)Gal(b1-4)GlcNAc
# Outline: as §1
# [27] = biological target: Gal(b1-4)GlcNAc(b1-2)Man
# Outline: as §1
# [28] = biological target: Gal(b1-4)GlcNAc(b1-2)Man(a1-3)Man(b1-4)GlcNAc(b1-4)GlcNAc
# Outline: as §1
# [29] = biological target: Gal(b1-4)GlcNAc(b1-2)Man(a1-3)[Gal(b1-4)GlcNAc(b1-2)Man(a1-6)]Man(b1-4)GlcNAc(b1-4)GlcNAc
# Outline: as §1
# [30] = biological target: Gal(b1-4)GlcNAc(b1-2)Man(a1-3)[Gal(b1-4)GlcNAc(b1-2)Man(a1-6)]Man(b1-4)GlcNAc(b1-4)[Fuc(a1-6)]GlcNAc
# Outline: as §1
# [31] = biological target: Gal(b1-4)GlcNAc(b1-2)Man(a1-3)[Gal(b1-4)GlcNAc(b1-2)Man(a1-6)][Gal(b1-4)GlcNAc(b1-4)]Man(b1-4)GlcNAc(b1-4)[Fuc(a1-6)]GlcNAc
# Outline: as §1
# [32] = biological target: Gal(b1-4)GlcNAc(b1-2)Man(a1-3)[Gal(b1-4)GlcNAc(b1-2)Man(a1-6)][GlcNAc(b1-4)]Man(b1-4)GlcNAc(b1-4)[Fuc(a1-6)]GlcNAc
# Outline: as §1
# [33] = biological target: Gal(b1-4)GlcNAc(b1-2)Man(a1-3)[GlcNAc(b1-2)Man(a1-6)]Man(b1-4)GlcNAc(b1-4)GlcNAc
# Outline: as §1
# [34] = biological target: Gal(b1-4)GlcNAc(b1-2)Man(a1-3)[GlcNAc(b1-4)][Gal(b1-4)GlcNAc(b1-2)Man(a1-6)]Man(b1-4)GlcNAc(b1-4)GlcNAc
# Outline: as §1
# [35] = biological target: Gal(b1-4)GlcNAc(b1-2)Man(a1-3)[Man(a1-6)]Man(b1-4)GlcNAc(b1-4)GlcNAc
# Outline: as §1
# [36] = biological target: Gal(b1-4)GlcNAc(b1-2)Man(a1-6)Man(b1-4)GlcNAc(b1-4)GlcNAc
# Outline: as §1
# [37] = biological target: Gal(b1-4)GlcNAc(b1-2)Man(a1-6)[GlcNAc(b1-2)Man(a1-3)]Man(b1-4)GlcNAc(b1-4)GlcNAc
# Outline: as §1
# [38] = biological target: Gal(b1-4)GlcNAc(b1-2)Man(a1-6)[Man(a1-3)]Man(b1-4)GlcNAc(b1-4)GlcNAc
# Outline: as §1
binder,measurement,setting,value
"LSECtin (Homo sapiens), Q6UXB4 (protein) MDTTRYSKWGGSSEEVPGGPWGRWVHWSRRPLFLALAVLVTTVLWAVILSILLSKASTERAALLDGHDLLRTNASKQTAALGALKEEVGDCHSCCSGTQAQLQTTRAELGEAQAKLMEQESALRELRERVTQGLAEAGRGREDVRTELFRALEAVRLQNNSCEPCPTSWLSFEGSCYFFSVPKTTWAAAQDHCADASAHLVIVGGLDEQGFLTRNTRGRGYWLGLRAVRHLGKVQGYQWVDGVSLSFSHWNQGEPNDAWGRENCVMMLHTGLWNDAPCDSEKDGWICEKRHNC",glycan array binding signal (z-score),[1],-0.13
same,glycan array binding signal (z-score),[2],-0.134
same,glycan array binding signal (z-score),[3],-0.137
same,glycan array binding signal (z-score),[4],-0.133
same,glycan array binding signal (z-score),[5],-0.134
same,glycan array binding signal (z-score),[6],-0.137
same,glycan array binding signal (z-score),[7],-0.182
same,glycan array binding signal (z-score),[8],-0.136
same,glycan array binding signal (z-score),[9],0.122
same,glycan array binding signal (z-score),[10],-0.157
same,glycan array binding signal (z-score),[11],-0.088
same,glycan array binding signal (z-score),[12],-0.162
same,glycan array binding signal (z-score),[13],-0.195
same,glycan array binding signal (z-score),[14],-0.135
same,glycan array binding signal (z-score),[15],0.004
same,glycan array binding signal (z-score),[16],-0.201
same,glycan array binding signal (z-score),[17],-0.141
same,glycan array binding signal (z-score),[18],-0.085
same,glycan array binding signal (z-score),[19],-0.219
same,glycan array binding signal (z-score),[20],-0.132
same,glycan array binding signal (z-score),[21],-0.187
same,glycan array binding signal (z-score),[22],-0.19
same,glycan array binding signal (z-score),[23],-0.192
same,glycan array binding signal (z-score),[24],-0.18
same,glycan array binding signal (z-score),[25],-0.189
same,glycan array binding signal (z-score),[26],-0.209
same,glycan array binding signal (z-score),[27],-0.137
same,glycan array binding signal (z-score),[28],-0.181
same,glycan array binding signal (z-score),[29],-0.21
same,glycan array binding signal (z-score),[30],-0.143
same,glycan array binding signal (z-score),[31],-0.137
same,glycan array binding signal (z-score),[32],-0.133
same,glycan array binding signal (z-score),[33],1.71
same,glycan array binding signal (z-score),[34],-0.138
same,glycan array binding signal (z-score),[35],-0.152
same,glycan array binding signal (z-score),[36],-0.028
same,glycan array binding signal (z-score),[37],5.9
same,glycan array binding signal (z-score),[38],0.136
